Cross-linked residues data for 35 substances are collected here from publication PMC13423814.

The source holds more than one record for some entries. This list holds those alone. The source may hold further records. Some entries list several cross-links; each record is another pair of residues.

Holding throughout (conditions): DSSO, in cells
Experiment [1] concerns the target PRPF3 (UniProt O43395).
Experiment [2] concerns the target YWHAZ (UniProt P63104).
For experiment [3], the target named is SF3A3 (UniProt Q12874).
For experiment [4], the target named is PSMD2 (UniProt Q13200).
Experiment [5] deals with SND1 (UniProt Q7KZF4).
The target in experiment [6] is PDIA6 (UniProt Q15084).
Experiment [7] deals with UTP15 (UniProt Q8TED0).
In experiment [8] the target is SERBP1 (UniProt Q8NC51).
In experiment [9] the target is RTRAF (UniProt Q9Y224).
Experiment [10] concerns the target SNRPD3 (UniProt P62318).
Experiment [11] addresses SPTAN1 (UniProt Q13813).
In experiment [12] the target is RNF20 (UniProt Q5VTR2).
In experiment [13] the target is NUP85 (UniProt Q9BW27).
Experiment [14] addresses TIMM50 (UniProt Q3ZCQ8).
Experiment [15] concerns the target YWHAE (UniProt P62258).
Experiment [16] deals with STX5 (UniProt Q13190).
Experiment [17] concerns the target PRKDC (UniProt P78527).
Experiment [18] addresses XRCC5 (UniProt P13010).
Experiment [19] concerns the target TASOR (UniProt Q9UK61).
For experiment [20], the target named is SLC7A11 (UniProt Q9UPY5).
Experiment [21] has as its target SLC7A5 (UniProt Q01650).
The target in experiment [22] is OCIAD1 (UniProt Q9NX40).
Experiment [23] addresses PSMC2 (UniProt P35998).
Experiment [24] concerns the target SRP9 (UniProt P49458).
Experiment [25] has as its target UTP11 (UniProt Q9Y3A2).
The target in experiment [26] is PDIA3 (UniProt P30101).
Experiment [27] addresses NUP205 (UniProt Q92621).
Experiment [28] deals with PSME2 (UniProt Q9UL46).
Experiment [29] addresses PLEC (UniProt Q15149).
In experiment [30] the target is SMC4 (UniProt Q9NTJ3).
Experiment [31] deals with YWHAB (UniProt P31946).
Experiment [32] addresses YWHAG (UniProt P61981).
The target of experiment [33] is SRP68 (UniProt Q9UHB9).
The target of experiment [34] is PNN (UniProt Q9H307).
The target in experiment [35] is THOC2 (UniProt Q8NI27).
In experiment [36] the target is S100A6 (UniProt P06703).

Sequence of UniProt P30101 (P30101 whole entry): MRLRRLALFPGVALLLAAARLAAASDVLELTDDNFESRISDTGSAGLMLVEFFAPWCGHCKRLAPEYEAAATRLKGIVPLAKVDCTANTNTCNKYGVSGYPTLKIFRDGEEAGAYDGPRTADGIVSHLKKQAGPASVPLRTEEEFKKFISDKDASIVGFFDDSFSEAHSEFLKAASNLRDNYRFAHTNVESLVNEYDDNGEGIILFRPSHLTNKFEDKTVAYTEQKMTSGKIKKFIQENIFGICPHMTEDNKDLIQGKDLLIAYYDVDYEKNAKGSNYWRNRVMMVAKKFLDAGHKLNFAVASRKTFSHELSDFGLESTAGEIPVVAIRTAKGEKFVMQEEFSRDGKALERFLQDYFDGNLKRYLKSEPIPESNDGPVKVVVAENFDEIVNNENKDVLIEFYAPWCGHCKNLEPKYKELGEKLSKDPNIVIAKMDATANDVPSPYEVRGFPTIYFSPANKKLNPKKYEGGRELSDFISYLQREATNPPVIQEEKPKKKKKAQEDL
Sequence of SMC2 (O95347 whole entry): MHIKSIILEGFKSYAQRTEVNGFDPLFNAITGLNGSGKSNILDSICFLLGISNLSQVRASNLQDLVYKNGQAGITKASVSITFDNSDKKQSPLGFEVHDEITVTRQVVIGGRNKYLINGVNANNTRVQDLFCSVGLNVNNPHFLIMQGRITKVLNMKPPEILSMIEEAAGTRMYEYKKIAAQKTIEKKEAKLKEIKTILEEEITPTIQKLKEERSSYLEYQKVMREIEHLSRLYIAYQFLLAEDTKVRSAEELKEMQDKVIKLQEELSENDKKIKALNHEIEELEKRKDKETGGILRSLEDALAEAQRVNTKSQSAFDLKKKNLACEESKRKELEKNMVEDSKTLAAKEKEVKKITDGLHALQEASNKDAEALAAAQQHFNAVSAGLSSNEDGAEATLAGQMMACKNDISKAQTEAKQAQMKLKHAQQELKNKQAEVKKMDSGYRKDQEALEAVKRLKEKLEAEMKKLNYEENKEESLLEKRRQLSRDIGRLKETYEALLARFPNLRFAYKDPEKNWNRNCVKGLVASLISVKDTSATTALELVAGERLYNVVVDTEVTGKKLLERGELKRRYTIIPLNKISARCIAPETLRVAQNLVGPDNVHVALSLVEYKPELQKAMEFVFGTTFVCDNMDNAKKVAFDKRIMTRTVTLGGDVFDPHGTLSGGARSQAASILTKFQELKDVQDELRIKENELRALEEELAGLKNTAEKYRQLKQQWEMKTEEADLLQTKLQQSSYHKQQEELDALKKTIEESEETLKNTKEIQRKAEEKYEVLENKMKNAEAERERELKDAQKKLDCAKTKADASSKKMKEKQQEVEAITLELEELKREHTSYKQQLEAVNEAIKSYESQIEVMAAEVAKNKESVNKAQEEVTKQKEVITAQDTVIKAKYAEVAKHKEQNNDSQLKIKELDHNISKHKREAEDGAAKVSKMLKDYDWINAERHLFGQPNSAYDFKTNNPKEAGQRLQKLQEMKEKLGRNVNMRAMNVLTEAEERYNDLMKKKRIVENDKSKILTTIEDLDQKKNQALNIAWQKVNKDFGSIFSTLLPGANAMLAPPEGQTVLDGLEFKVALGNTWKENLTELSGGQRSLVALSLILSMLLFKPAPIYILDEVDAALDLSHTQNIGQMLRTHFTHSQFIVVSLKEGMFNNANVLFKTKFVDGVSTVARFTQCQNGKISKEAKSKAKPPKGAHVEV
Sequence of PSMC5 (P62195 whole entry): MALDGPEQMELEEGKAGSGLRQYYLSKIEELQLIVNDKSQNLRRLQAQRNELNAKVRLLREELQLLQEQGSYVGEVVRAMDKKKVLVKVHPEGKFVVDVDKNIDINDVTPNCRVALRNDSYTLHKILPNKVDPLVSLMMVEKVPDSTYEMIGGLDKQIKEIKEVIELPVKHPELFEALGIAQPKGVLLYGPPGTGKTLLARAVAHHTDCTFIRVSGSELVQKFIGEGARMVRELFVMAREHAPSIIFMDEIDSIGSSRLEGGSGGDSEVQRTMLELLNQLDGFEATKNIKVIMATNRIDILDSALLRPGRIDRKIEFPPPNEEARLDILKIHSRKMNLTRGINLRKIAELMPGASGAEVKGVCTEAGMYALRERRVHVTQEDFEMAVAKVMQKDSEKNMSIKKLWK
Sequence of SPTBN1 (Q01082 whole entry): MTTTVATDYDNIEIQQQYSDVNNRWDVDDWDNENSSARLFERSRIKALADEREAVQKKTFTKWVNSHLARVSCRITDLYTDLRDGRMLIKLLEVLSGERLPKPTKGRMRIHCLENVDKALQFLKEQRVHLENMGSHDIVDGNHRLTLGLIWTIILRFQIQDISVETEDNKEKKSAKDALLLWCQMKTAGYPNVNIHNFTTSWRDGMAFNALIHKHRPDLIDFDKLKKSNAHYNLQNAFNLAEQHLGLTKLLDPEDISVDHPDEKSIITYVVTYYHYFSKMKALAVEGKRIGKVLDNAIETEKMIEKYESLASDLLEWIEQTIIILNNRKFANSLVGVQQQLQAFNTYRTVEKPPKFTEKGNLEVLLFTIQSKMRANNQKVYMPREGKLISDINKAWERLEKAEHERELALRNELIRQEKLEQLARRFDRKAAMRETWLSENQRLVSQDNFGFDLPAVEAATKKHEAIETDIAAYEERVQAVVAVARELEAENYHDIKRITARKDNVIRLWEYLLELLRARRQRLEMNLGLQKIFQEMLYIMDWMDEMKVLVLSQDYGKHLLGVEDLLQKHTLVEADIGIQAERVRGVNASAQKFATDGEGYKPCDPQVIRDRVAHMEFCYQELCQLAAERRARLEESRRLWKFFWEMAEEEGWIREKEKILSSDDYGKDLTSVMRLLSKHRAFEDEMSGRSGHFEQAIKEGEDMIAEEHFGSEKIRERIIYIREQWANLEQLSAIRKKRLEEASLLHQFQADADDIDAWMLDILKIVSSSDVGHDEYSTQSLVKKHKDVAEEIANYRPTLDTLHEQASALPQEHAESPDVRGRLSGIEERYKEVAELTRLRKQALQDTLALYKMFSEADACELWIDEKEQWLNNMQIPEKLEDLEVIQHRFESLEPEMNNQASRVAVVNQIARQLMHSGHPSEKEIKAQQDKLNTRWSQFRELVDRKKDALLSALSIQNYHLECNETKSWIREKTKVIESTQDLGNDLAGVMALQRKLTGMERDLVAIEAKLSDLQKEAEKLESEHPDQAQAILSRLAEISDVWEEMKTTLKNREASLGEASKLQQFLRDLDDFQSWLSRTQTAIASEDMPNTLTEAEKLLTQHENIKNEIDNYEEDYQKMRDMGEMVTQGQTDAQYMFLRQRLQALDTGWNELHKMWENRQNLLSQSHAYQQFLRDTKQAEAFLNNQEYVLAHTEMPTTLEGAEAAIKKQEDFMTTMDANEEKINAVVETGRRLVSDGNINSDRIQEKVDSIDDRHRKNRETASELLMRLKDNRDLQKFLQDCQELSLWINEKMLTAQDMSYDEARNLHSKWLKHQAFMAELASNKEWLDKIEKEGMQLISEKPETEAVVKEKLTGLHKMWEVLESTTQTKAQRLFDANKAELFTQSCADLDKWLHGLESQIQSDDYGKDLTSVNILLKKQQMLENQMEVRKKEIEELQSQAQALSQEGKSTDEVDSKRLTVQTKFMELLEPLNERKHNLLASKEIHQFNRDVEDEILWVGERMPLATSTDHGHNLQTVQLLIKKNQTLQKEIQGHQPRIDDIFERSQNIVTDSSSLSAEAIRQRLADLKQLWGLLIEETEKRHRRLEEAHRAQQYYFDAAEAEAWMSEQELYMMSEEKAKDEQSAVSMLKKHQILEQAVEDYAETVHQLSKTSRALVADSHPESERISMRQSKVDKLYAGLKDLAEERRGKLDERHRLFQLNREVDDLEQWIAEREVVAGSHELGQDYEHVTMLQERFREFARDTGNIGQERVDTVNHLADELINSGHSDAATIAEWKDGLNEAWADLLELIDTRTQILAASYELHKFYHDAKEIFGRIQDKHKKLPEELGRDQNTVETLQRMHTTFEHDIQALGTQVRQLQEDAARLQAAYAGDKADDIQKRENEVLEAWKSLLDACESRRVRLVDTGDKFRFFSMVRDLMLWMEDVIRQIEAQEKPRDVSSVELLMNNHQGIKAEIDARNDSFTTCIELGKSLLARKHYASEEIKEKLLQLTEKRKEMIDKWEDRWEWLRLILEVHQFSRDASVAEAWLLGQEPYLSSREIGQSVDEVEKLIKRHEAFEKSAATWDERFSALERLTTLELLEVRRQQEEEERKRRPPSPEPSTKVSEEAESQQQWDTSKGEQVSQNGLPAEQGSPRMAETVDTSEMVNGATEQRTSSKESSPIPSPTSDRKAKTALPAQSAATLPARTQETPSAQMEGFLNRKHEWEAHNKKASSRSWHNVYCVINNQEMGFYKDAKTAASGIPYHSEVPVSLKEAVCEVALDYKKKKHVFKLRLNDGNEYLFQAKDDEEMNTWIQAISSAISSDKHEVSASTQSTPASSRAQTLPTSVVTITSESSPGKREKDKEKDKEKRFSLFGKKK
Sequence of PSME1 (Q06323 whole entry): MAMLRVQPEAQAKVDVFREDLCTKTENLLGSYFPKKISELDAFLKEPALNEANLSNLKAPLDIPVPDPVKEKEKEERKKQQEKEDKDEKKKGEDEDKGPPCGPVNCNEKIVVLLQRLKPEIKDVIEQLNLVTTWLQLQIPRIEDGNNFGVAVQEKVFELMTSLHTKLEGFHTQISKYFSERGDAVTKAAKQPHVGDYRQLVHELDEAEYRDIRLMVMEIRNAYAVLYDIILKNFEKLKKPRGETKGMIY
Sequence of SNRPB2 (P08579 whole entry): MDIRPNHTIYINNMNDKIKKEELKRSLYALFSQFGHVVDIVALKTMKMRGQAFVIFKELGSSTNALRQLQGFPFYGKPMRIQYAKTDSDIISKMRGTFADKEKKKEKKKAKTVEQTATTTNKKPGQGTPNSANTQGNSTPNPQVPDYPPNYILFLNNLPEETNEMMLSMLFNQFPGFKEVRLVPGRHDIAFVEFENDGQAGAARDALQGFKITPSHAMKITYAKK
Sequence of UniProt P49458 (P49458 whole entry): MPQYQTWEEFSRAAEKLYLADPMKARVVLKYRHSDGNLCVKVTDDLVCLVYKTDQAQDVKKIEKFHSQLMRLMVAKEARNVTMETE

Take PRPF4, O43172: the cross-linked residues result in experiment [1] is “K200 - K376 and K216 - K361”. Regarding YWHAE, P62258, the cross-linked residues entry in experiment [2] is “K69 - K11 and K73 - K3”. Take SNRPA1, P09661: in [3], the cross-linked residues entry is “K56 - K64 and K172 - K64 and K179 - K69”.

On to PSMC5, P62195, for which the cross-linked residues entry in experiment [4] is “K162 - K41 and K222 - K41 and K330 - K39 and K330 - K41”.

In the case of RPS9, P46781, the cross-linked residues result in experiment [5] is “K91 - K513 and K121 - K513 and K155 - K497”. Consider P4HB, P07237, for which, in experiment [6], the cross-linked residues result was “K31 - K150 and K71 - K150”. For WDR43, Q15061, in experiment [7], the cross-linked residues result is “K430 - K74 and K430 - S501”. For the substance YWHAG, P61981, the cross-linked residues result in experiment [2] was “M1 - K74 and K10 - K74 and K77 - K9”. RPS12, P25398: the cross-linked residues result in experiment [8] is “K116 - K281 and K116 - K294 and K116 - K299”. FAM98B, Q52LJ0: in [9], the cross-linked residues result was “K136 - K98 and K280 - K171”. For SNRPB2, P08579, the cross-linked residues result in [10] is “K93 - K78 and K93 - K84 and K101 - K84”. In the case of SPTBN1, Q01082, in experiment [11], the cross-linked residues entry was “K292 - K2404 and K659 - K1911 and K668 - S1948 and K668 - K1957 and K997 - K1646 and K1249 - K1369 and K1421 - K1138 and K1434 - K1141 and S1458 - K1131 and S1458 - K1132 and K1532 - K909 and K1622 - K864 and K1632 - K803 and K1632 - K864 and K1675 - K814 and K1675 - K969 and K1815 - K602 and K1824 - K613 and K1827 - K602 and K1827 - K613 and K2054 - K441”. As for RNF40, O75150, the cross-linked residues result in [12] is “K355 - K57 and K860 - K836 and K862 - K834”. As for NUP98, P52948, the cross-linked residues entry in experiment [13] is “S1039 - K92 and S1039 - K540”. Consider SLC25A3, Q00325, for which the cross-linked residues result in [14] is “K101 - T46 and K209 - T46”. On to YWHAB, P31946, for which the cross-linked residues result in [15] was “K13 - K69 and K13 - K78”. On to SEC22B, O75396, for which the cross-linked residues result in experiment [16] was “K43 - K103 and K43 - K202”. XRCC6, P12956: the cross-linked residues entry is “K189 - K2350 and K189 - K2418 and K297 - K117 and K297 - K165 and T316 - K205 and K331 - K165” in experiment [17]; “K114 - S324 and K189 - K648 and K189 - K702 and K282 - S324 and K282 - K332 and K287 - K291 and K287 - K325 and T316 - K282 and K539 - K338 and K570 - K469 and T572 - K195 and K575 - K202 and K596 - K144” in [18]. In the case of MPHOSPH8, Q99549, the cross-linked residues result in [19] was “K623 - K507 and K626 - K507 and K847 - K507 and K847 - K586”. SLC3A2, P08195: the cross-linked residues result was “K59 - K4 and K65 - K30 and K144 - K222 and K154 - K222 and K197 - K222” in experiment [20]; “K44 - K19 and K44 - K30 and K46 - K19 and K46 - K25 and K46 - K30 and K59 - K25 and S64 - K30 and K65 - K19 and K65 - K25” in experiment [21]. As for PHB2, Q99623, the cross-linked residues entry in experiment [22] was “K89 - K131 and K89 - K195 and K262 - K195”. On to PSMC3, P17980, for which the cross-linked residues entry in [23] was “K173 - K116 and K372 - K340”.

Regarding SRP14, P37108, in experiment [24], the cross-linked residues entry was “T45 - K24 and T45 - K76 and K55 - K76 and S73 - K76 and K74 - K76 and K78 - K76 and K95 - K60”. NOL7, Q9UMY1: the cross-linked residues result in experiment [25] is “K162 - K131 and K162 - K135 and K170 - K135”.

CALR, P27797: the cross-linked residues entry in experiment [26] is “K43 - K425 and K55 - K494 and K153 - K82 and K153 - K94 and K153 - K104 and K153 - K226 and K153 - K494 and K360 - K494”. NUP54, Q7Z3B4: the cross-linked residues result in [27] is “K363 - K892 and K371 - K892”. Consider PSME1, Q06323, for which the cross-linked residues entry in [28] is “K35 - K15 and K45 - K15 and K70 - T80 and K91 - K180 and K187 - K177 and K187 - K180 and K190 - K177 and K190 - K180”.

As to CANX, P27824, the cross-linked residues result in [26] is “K89 - K226 and K90 - K226”. In the case of VIM, P08670, the cross-linked residues result in experiment [29] was “K120 - K3887 and K168 - K4480 and K373 - K1815 and K445 - K3384”. For the substance SMC2, O95347, in [30], the cross-linked residues result was “K290 - K988 and K320 - K405 and K348 - K928 and K580 - K731 and K750 - K522 and K890 - K370 and K900 - K1009 and K911 - K1009 and K911 - K1017 and K930 - S1030 and K930 - K1031”. On to YWHAQ, P27348, for which the cross-linked residues result in [31] was “K68 - K13 and K85 - K11”; in [32] it was “K9 - K77 and K74 - M1 and K74 - K10 and K85 - K10”; in experiment [2] it was “K9 - K74 and K9 - Y82 and K85 - K9”. In the case of SRP72, O76094, the cross-linked residues entry in experiment [33] is “K536 - S415 and K600 - K107”.

For SAP18, O00422, the cross-linked residues result in experiment [34] was “K74 - K109 and T116 - K109”. For the substance THOC5, Q13769, the cross-linked residues entry in experiment [35] was “K24 - K35 and K24 - K139”. Turning to ALDH1A1, P00352, the cross-linked residues entry in [36] was “K410 - K26 and K412 - K26”.
